For 34 variants, self-cleavage results are on record in the RNAGym collection of RNA variant scans (doi:10.1093/nar/gkz1192).

First the molecules themselves.
B1: CPEB3 Ribozyme (parent)
chain: UAACAGGGGGCCACAGCAGAAGCGUUCACGUCGCAGCCCCUGUCAGAUUCUGGUGAAUCUGCGAAUUCUGCUGUAUAUCUC

The source gives no read counts; variants with many changes may rest on few reads.

Variants of B1 are the subject of the series. Briefly: self-cleavage, relative activity (ratio to wild type); higher = more cleavage; in vitro, sequencing. The method, boiled down: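 After error-prone PCR and barcoding, CPEB3 ribozyme mutant libraries were transcribed with T7 RNA polymerase at 37°C for 5 hours, then given 15 min with DNase I before an EDTA stop, and they cleaved during both steps. Reverse transcription with template switching preceded Illumina sequencing. Relative activity divides a variant's cleaved/total read fraction by the unmutated ribozyme's. At least 5 reads were required per variant, and three batches were averaged.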
UAACAGGGGGCCACAGCGGGAGCGUUCACGUCGCAGCCCCUGUCAGAUUCUGGUGAAUCUGCGAAUUCUGCUGUAAAUCUC [A18G A20G U76A]: the self-cleavage was 0.72. The figure for UAACAGGGGGCCACAGCCGAAGCGUUCACGUCGCAGCCCCUGUCUGAUUCUGGUGAAUCUGCGAAUUCUGCUGUAUACCUC [A18C A45U U78C] is 0.37; for UAACAGGGGGCCACAGCCGGAGCGUUCACGUCGCAGCCCCUGUCAGAUUCUGGUGAAUCUGCGAAUUCUGCUGUAUAUCCA [A18C A20G U80C C81A] it is 0.83; for UAACAGGGGGCCACAGCCGAAGCGUUCACGUCGCGGCCCCUGUCAGAUUCCAGUGAAUCUGCGAUUUCUGCUGUAUACCUC [A18C A35G U51C G52A A65U U78C] it is 0.34. With UAACAGGGGGCCACAGCGGGAGCGAUCACGUCGCAGCCCCUGUCAGAUUCUGGUGAAUCUGCGAAUUCUGCUGUACAUUUC [A18G A20G U25A U76C C79U], the self-cleavage was 0.16. The figure for UAACAGGGGGCCACAGCGGGAGCGUUCACGUCGCGGCCCCCGUCAGAUUCUGGUGAAUCUGCGAAUUCAGCUGUGUAUCCC [A18G A20G A35G U41C U69A A75G U80C] is 0.09.

UAACAGGGGGCCACAGCCGAAGCGUUCACGUCGCAGCCCCUGUCAGAUUCUGGUGAAUCUGCGAAUACUGCAGUACAUCUC [A18C U67A U72A U76C]: the self-cleavage worked out at 0.14. The figure for UAACAGGGGGCCACAGCCGAAGCGUUCACGUCGCAGCCCCUGUCAGGUUCCGGUGUAUCUGCGAAUUCUGCAGUAUAUCUC [A18C A47G U51C A56U U72A] is 0.27.

As for UAACAGGGGGCCACAGCCGAAGCGUUCACGCCGCAGCCCCUGUCAGAUUCUGGUGAAUCUGCGAAUUCUGCAGUAUAACUC [A18C U31C U72A U78A], the self-cleavage is 0.09. UAACAGGGGGCCACAGCCGAAGCGUUCACGUCGCAGCUCCUGUCAGAUUCUGGUGGAUCUGCGAAUUCUGCUGUAUAUCUC [A18C C38U A56G]: the self-cleavage is 0.6. The figure for UAACAGGGGGCCACAGCCGAAGCGCUCACGUCGCAGCCCCUGUCAGAUUCUGGUGAACCUGCGAAUUCUGCUGUAUAUCUC [A18C U25C U58C] is 0.2; for UAACAGGGGGCCACAGCCGAAGCGUUCACGUCGCAGCCCCUGUCAGAUUCUGGUGAAUCAGCGAAUACUGCUGUAUAUCUC [A18C U60A U67A] it is 0.11; for UAACAGGGGGCCACAGUAGAAGCGUUCACGUCGCAGCCCCUGUCAGAUUCUGGGGAAUCCGCGAAUUCUGCUGUAUAUCUC [C17U U54G U60C] it is 0.47. Turning to UAACAGGGGGCCACAGCCGAAGCGUUCACAUCGCAGCCCCUGUCAGAUCCUGGUGUAUCUGCGAAUUCCGCUGUAAAUCCC [A18C G30A U49C A56U U69C U76A U80C], the self-cleavage came out at 0.04. The figure for UAACAGGGGGCCACAGCGGGAGCGUUCAUGUCGCAGCCCCUGUCCGAUUCUGGUGGAUCUGCGAAUUCUGCUGUGUAUCUC [A18G A20G C29U A45C A56G A75G] is 0.09. The figure for UAACAGGGGGCCACAGCGGGAGCGUUCACGUCGCAGCCCCUGUCGGAUUCUGGUGGAUCUGCGAAUUCUGCUGUACAUCUC [A18G A20G A45G A56G U76C] is 0.46; for UAACAGGGGGCCACAGCGGGGGCAUUCACGUCGCAGCCCCUGUCAGAUUCAGGUGAAUCUGCGAAUUCUGCUGUAUAUCAC [A18G A20G A21G G24A U51A U80A] it is 0.16; for UAACAGGGGGCCACAGUAGAAGCGUUCACGUCGCAGCCCCUGUCAGAUUCUGGUGAAUCCGCGAAUUCUGCAGUACUUCUC [C17U U60C U72A U76C A77U] it is 0.13.

Consider UAACAGGGGGCCACAGCGGGAGCGUUCACGUCGCAGCCCCUGUCUGAUUCUGGUGAAUCAGCGAAUUCUGCUGUAUAUCUC [A18G A20G A45U U60A], for which the self-cleavage turned out to be 0.14. The figure for UAACAGGGGGCCACAGCGGGAGCGUUCACGUCGCAGCCCCUGUCAGAUUCUGGUGAAUCUGCGAAUUCUGCUGUAUAUCUG [A18G A20G C81G] is 0.7; for UAACAGGGGGCCACAGCGGGAGCGUUCACGUCGCAGACCCCGUCAGAUUCUGGUGAAUCUGCGAAUUCUGCUGUAUAUCUC [A18G A20G C37A U41C] it is 0.26; for UAACAGGGGGCCACAGUAGAAGCGUUCACGUCGCAGCCCCUGUCAGAUUCUGGAGAGUCUUCGAAUUCUGCCGUAUAUCUC [C17U U54A A57G G61U U72C] it is 0.17. The figure for UAACAGGGGGCCACAGCGGUAGCGCUCACGUCGCAGCCUCUGUCAGAUCCAGGUGAAUCUGCGAGUUCUGCUGUAUAUCUC [A18G A20U U25C C39U U49C U51A A65G] is 0.04; for UAACAGGGGGCCACAGCCGAAACGUUCACGUCGCAGCCCCUGUCAGAUUCUGGUGAAUCUGCGAAUUCUGCUGUAUAUCCC [A18C G22A U80C] it is 0.25; for UAACAGGGGGCCACAGCCGAAGCGUUCACGUCGCAGCCCCUGCCAGAUUCAGGUGAAUCUGCGGAUUCUGCUGUUUAUCUC [A18C U43C U51A A64G A75U] it is 0.42. The figure for UAACAGGGGGCCACAGCGGAGGCGUUCACGUCGCAGCCCCUGUCGGAUUCCGGCGAAACUGCGAAUUCUGCUGAAUAUCUC [A18G A21G A45G U51C U54C U58A U74A] is 0.25. For UAACAGGGGGCCACAGCCGAAGCGUUCUCGCCGCAGCCCCUGUCAGAUUCUGGCGAAUAUGCGAAUUCUGCUGUAUAUCUC [A18C A28U U31C U54C C59A], the self-cleavage was determined as 0.05. The figure for UAACAGGGGGCCACAGCCGAAGCGCUCACGUCGCAGCCCCUGUCAGAUUCCGGUGUAUCUGCUAAUUCUGCUGUACAUCUC [A18C U25C U51C A56U G63U U76C] is 0.06; for UAACAGGGGGCCACAGUAGAAGCGUUCACGUCGCAGCCCCUGUCAGAUUCUGGUGAAUCCGCGAAUUCUGCAGUAUUUCUC [C17U U60C U72A A77U] it is 0.16.

Regarding UAACAGGGGGCCACAGCGGAGGCGUUCACGUCGCAGCCCCUGUCGGAUUCUGGUGAAUCUGCGAAAUCUGCAGUAUAUCUC [A18G A21G A45G U66A U72A], the self-cleavage stood at 0.15. As to UAACAGGGGGCCACAGCCGAAGCGUUCACGACGCAGCCCCUGCCAGAUGCCAGUGAAUCUGCGAAUUCUGCUGUAUAUCUC [A18C U31A U43C U49G U51C G52A], the self-cleavage turned out to be 0.24. Regarding UAACAGGGGGCCACAGCGGGAGCGUUCACGUCGCAGCCCCUGUCAGAUUCUGGUGAAUCUGCGAAUACGGCUGUAUAUCCC [A18G A20G U67A U69G U80C], the self-cleavage was determined as 0.09. The figure for UAACAGGGGGCCACAGCCGAAGCGAUCACGUCGCGGCCCCUGUCAGAUUCUGGUGAAUCUGCGAAUUCUGCUGUAUAUCUC [A18C U25A A35G] is 0.26; for UAACAGGGGGCCACAGCGGUAGCGUUCACGUCGCAGCCCCUGUCAGAUUCUAGUGAAUCUGCGAACUCUGCUGUAUAUCUC [A18G A20U G52A U66C] it is 0.12.
